{"source": "patent US20220117938A1", "about": "“COMBINATON THERAPY WITH A DON PRODRUG AND AN IMMUNE CHECKPOINT INHIBITOR” (DRACEN PHARMACEUTICALS, INC., priority 2019, published 2022)", "test_system": "MC-38 tumors", "test": "Anti-tumor efficacy of Compound 1 in the subcutaneous MC-38 model: schedule comparison (Example 3)", "format": "in vivo, Mus musculus", "method": "Female C57BL/6 mice were inoculated subcutaneously at right flank with MC-38 cells for tumor development. Six days after tumor inoculation, 64 mice with tumor size ranging from 50-100 mm^3 (average tumor size 71 mm^3) were selected and assigned into 8 groups using stratified randomization with 8 mice per group based upon their tumor volumes. The treatments were started from the day of randomization (defined as D0), Group 1 was treated with Vehicle (Tween 80:Ethanol:Saline—5:5:90 v/v/v), S.C. QD*20 days, Group 2 was treated with Compound 1 at 1 mpk S.C. QD*28 days, Group 3 was treated with Compound 1 at 0.5 mpk S.C. QD*28 days, Group 4 was treated with Compound 1 at 1.4 mpk S.C. 5-days ON 2-days OFF×4 cycles, Group 5 was treated with Compound 1 at 0.7 mpk S.C. 5-days ON 2-days OFF×4 cycles, Group 6 was treated with Compound 1 at 3 mpk qd×5, followed by 1 mpk qd×23, S.C. QD, Group 7 was treated with Compound 1 at 1.5 mpk qd×5, followed by 0.5 mpk qd×23, S.C. QD and Group 8 was treated with Compound 1 at 1.4 mpk 10-days ON 4-days OFF×2 cycles, S.C.\nSpecies: Mus musculus; Strain: C57BL/6; Age: 6-8 weeks; Sex: female; Body weight (at treatment start): 16-20 g.\nThe MC-38 tumor cells were maintained in vitro as a monolayer culture in DMEM medium supplemented with 10% heat inactivated fetal bovine serum and 100 μg/mL penicillin streptomycin at 37° C. in an atmosphere of 5% CO2 in air. The tumor cells were routinely subcultured twice weekly by trypsin-EDTA treatment. The cells growing to a confluency around 70%-80% were harvested and counted for tumor inoculation. The cultured MC-38 were harvested, re-suspended in base medium at a density of 1×10^7 cells/mL with viability>90%. Each mouse was inoculated subcutaneously at the right flank with 1×10^6 cells in 0.1 ml base medium for tumor development.\nThe treatments were started on day 6 after tumor inoculation when the tumor size reached 50-100 mm^3 (average tumor size 71 mm^3). Each group consisted of 8 tumor-bearing mice. The testing article was administrated to the mice at a dosing volume of 10 mL/Kg according to the predetermined regimen as shown in Table 3-1.\nTumor sizes were measured three times a week in two dimensions using a caliper, and the volume expressed in mm^3 using the formula: V=0.5 a×b^2 where a and b are the long and short diameters of the tumor, respectively. The tumor sizes were then used for the calculations of both tumor growth inhibition (TGI) and T/C values.\nTGI is calculated for each group using the formula: […]\nTVTreatment_DayN is the average tumor volume of a treatment group on a given day, TVTreatment_Day0 is the average tumor volume of the treatment group on the first day of treatment, TVVehicle_DayN is the average tumor volume of the vehicle control group on a given day, and TVVehicle_Day0 is the average tumor volume of the vehicle group on the first day of treatment.\nThe T/C value (in percent) is an indication of antitumor effectiveness, T/C (%)=RTVTreatment/RTVControl×100% (RTVTreatment: the mean RTV of the treatment group; RTVControl: the mean RTV of the vehicle treated group). RTV (relative tumor volume)=TVDayN/TVDay0. TVDayN and TVDay0 is the tumor volume on day N and Day 0 respectively. T/C (%)≤42% is considered as significant antitumor activity and <10% is considered as highly significant antitumor activity by the National Cancer Institute criteria.\nRelative change of body weight (RCBW) of each mouse was calculated according to the following formula: […]\nAnimal survival curve: When an individual animal reached to the termination endpoint (TV>2000 mm^3), the mouse was euthanized. The time from treatment initiation to the termination was deemed as its survival time. Survival curve was plotted by Kaplan-Meier method. Median survival time (MST) was calculated for each group. Increase of life span (ILS) was calculated according to the following formula: […]\nILS (%)>25% is considered as a biologically significant survival benefit. […]", "note": "The source gives many values for each of these; only a part stands here."}
{"smiles": "CC(=O)N[C@@H](Cc1c[nH]c2ccccc12)C(=O)N[C@@H](CCC(=O)C=[N+]=[N-])C(=O)OC(C)C", "note": "[Compound 1, Isopropyl (S)-2-((S)-2-acetamido-3-(1H-indol-3-yl)propanamido)-6-diazo-5-oxohexanoate]", "values": [{"measurement": "Tumor volume (Mean ± SEM)", "setting": "Day 0, Group 2: 1 mg/kg qdx28, sc", "value": "70 ± 5", "unit": "mm^3"}, {"measurement": "Tumor volume (Mean ± SEM)", "setting": "Day 0, Group 3: 0.5 mg/kg qdx28, sc", "value": "71 ± 5", "unit": "mm^3"}, {"measurement": "Tumor volume (Mean ± SEM)", "setting": "Day 0, Group 4: 1.4 mg/kg 5-days ON 2-days OFF x 4 cycles, sc", "value": "71 ± 6", "unit": "mm^3"}, {"measurement": "Tumor volume (Mean ± SEM)", "setting": "Day 0, Group 5: 0.7 mg/kg 5-days ON 2-days OFF x 4 cycles, sc", "value": "72 ± 6", "unit": "mm^3"}, {"measurement": "Tumor volume (Mean ± SEM)", "setting": "Day 0, Group 6: 3 mpk qdx5 followed by 1 mpk qdx23, sc", "value": "72 ± 6", "unit": "mm^3"}, {"measurement": "Tumor volume (Mean ± SEM)", "setting": "Day 0, Group 7: 1.5 mpk qdx5 followed by 0.5 mpk qdx23, sc", "value": "72 ± 6", "unit": "mm^3"}, {"measurement": "Tumor volume (Mean ± SEM)", "setting": "Day 0, Group 8: 1.4 mg/kg 10-days ON 4-days OFF x 2 cycles, sc", "value": "72 ± 6", "unit": "mm^3"}, {"measurement": "Tumor volume (Mean ± SEM)", "setting": "Day 4, Group 2: 1 mg/kg qdx28, sc", "value": "45 ± 5", "unit": "mm^3"}, {"measurement": "Tumor volume (Mean ± SEM)", "setting": "Day 4, Group 3: 0.5 mg/kg qdx28, sc", "value": "58 ± 6", "unit": "mm^3"}, {"measurement": "Tumor volume (Mean ± SEM)", "setting": "Day 4, Group 4: 1.4 mg/kg 5-days ON 2-days OFF x 4 cycles, sc", "value": "51 ± 4", "unit": "mm^3"}, {"measurement": "Tumor volume (Mean ± SEM)", "setting": "Day 4, Group 5: 0.7 mg/kg 5-days ON 2-days OFF x 4 cycles, sc", "value": "59 ± 6", "unit": "mm^3"}, {"measurement": "Tumor volume (Mean ± SEM)", "setting": "Day 4, Group 6: 3 mpk qdx5 followed by 1 mpk qdx23, sc", "value": "48 ± 3", "unit": "mm^3"}, {"measurement": "Tumor volume (Mean ± SEM)", "setting": "Day 4, Group 7: 1.5 mpk qdx5 followed by 0.5 mpk qdx23, sc", "value": "54 ± 3", "unit": "mm^3"}, {"measurement": "Tumor volume (Mean ± SEM)", "setting": "Day 4, Group 8: 1.4 mg/kg 10-days ON 4-days OFF x 2 cycles, sc", "value": "57 ± 6", "unit": "mm^3"}, {"measurement": "Tumor volume (Mean ± SEM)", "setting": "Day 6, Group 2: 1 mg/kg qdx28, sc", "value": "34 ± 4", "unit": "mm^3"}, {"measurement": "Tumor volume (Mean ± SEM)", "setting": "Day 6, Group 3: 0.5 mg/kg qdx28, sc", "value": "39 ± 3", "unit": "mm^3"}, {"measurement": "Tumor volume (Mean ± SEM)", "setting": "Day 6, Group 4: 1.4 mg/kg 5-days ON 2-days OFF x 4 cycles, sc", "value": "45 ± 4", "unit": "mm^3"}, {"measurement": "Tumor volume (Mean ± SEM)", "setting": "Day 6, Group 5: 0.7 mg/kg 5-days ON 2-days OFF x 4 cycles, sc", "value": "48 ± 5", "unit": "mm^3"}, {"measurement": "Tumor volume (Mean ± SEM)", "setting": "Day 6, Group 6: 3 mpk qdx5 followed by 1 mpk qdx23, sc", "value": "29 ± 2", "unit": "mm^3"}, {"measurement": "Tumor volume (Mean ± SEM)", "setting": "Day 6, Group 7: 1.5 mpk qdx5 followed by 0.5 mpk qdx23, sc", "value": "37 ± 3", "unit": "mm^3"}, {"measurement": "Tumor volume (Mean ± SEM)", "setting": "Day 6, Group 8: 1.4 mg/kg 10-days ON 4-days OFF x 2 cycles, sc", "value": "41 ± 4", "unit": "mm^3"}, {"measurement": "Tumor volume (Mean ± SEM)", "setting": "Day 8, Group 2: 1 mg/kg qdx28, sc", "value": "25 ± 2", "unit": "mm^3"}, {"measurement": "Tumor volume (Mean ± SEM)", "setting": "Day 8, Group 3: 0.5 mg/kg qdx28, sc", "value": "43 ± 4", "unit": "mm^3"}, {"measurement": "Tumor volume (Mean ± SEM)", "setting": "Day 8, Group 4: 1.4 mg/kg 5-days ON 2-days OFF x 4 cycles, sc", "value": "30 ± 3", "unit": "mm^3"}, {"measurement": "Tumor volume (Mean ± SEM)", "setting": "Day 8, Group 5: 0.7 mg/kg 5-days ON 2-days OFF x 4 cycles, sc", "value": "40 ± 7", "unit": "mm^3"}, {"measurement": "Tumor volume (Mean ± SEM)", "setting": "Day 8, Group 6: 3 mpk qdx5 followed by 1 mpk qdx23, sc", "value": "31 ± 2", "unit": "mm^3"}, {"measurement": "Tumor volume (Mean ± SEM)", "setting": "Day 8, Group 7: 1.5 mpk qdx5 followed by 0.5 mpk qdx23, sc", "value": "35 ± 3", "unit": "mm^3"}, {"measurement": "Tumor volume (Mean ± SEM)", "setting": "Day 8, Group 8: 1.4 mg/kg 10-days ON 4-days OFF x 2 cycles, sc", "value": "26 ± 2", "unit": "mm^3"}, {"measurement": "Tumor volume (Mean ± SEM)", "setting": "Day 13, Group 2: 1 mg/kg qdx28, sc, 1 mg/kg", "value": "5 + 2 mm^3"}, {"measurement": "Tumor volume (Mean ± SEM)", "setting": "Day 13, Group 3: 0.5 mg/kg qdx28, sc, 0.5 mg/kg", "value": "24 + 2 mm^3"}, {"measurement": "Tumor volume (Mean ± SEM)", "setting": "Day 13, Group 4: 1.4 mg/kg 5-days ON 2-days OFF x 4 cycles, sc, 1.4 mg/kg", "value": "11 + 3 mm^3"}, {"measurement": "Tumor volume (Mean ± SEM)", "setting": "Day 13, Group 5: 0.7 mg/kg 5-days ON 2-days OFF x 4 cycles, sc, 0.7 mg/kg", "value": "13 + 4 mm^3"}, {"measurement": "Tumor volume (Mean ± SEM)", "setting": "Day 13, Group 6: 3 mpk qdx5 followed by 1 mpk qdx23, sc", "value": "14 + 3 mm^3"}, {"measurement": "Tumor volume (Mean ± SEM)", "setting": "Day 13, Group 7: 1.5 mpk qdx5 followed by 0.5 mpk qdx23, sc", "value": "15 + 3 mm^3"}, {"measurement": "Tumor volume (Mean ± SEM)", "setting": "Day 13, Group 8: 1.4 mg/kg 10-days ON 4-days OFF x 2 cycles, sc, 1.4 mg/kg", "value": "17 + 4 mm^3"}, {"measurement": "Tumor volume (Mean ± SEM)", "setting": "Day 41, Group 5: 0.7 mg/kg 5-days ON 2-days OFF x 4 cycles, sc", "value": "443 ± 200", "unit": "mm^3"}, {"measurement": "Tumor volume (Mean ± SEM)", "setting": "Day 41, Group 7: 1.5 mpk qdx5 followed by 0.5 mpk qdx23, sc", "value": "1829 ± 275", "unit": "mm^3"}, {"measurement": "Tumor volume (Mean ± SEM)", "setting": "Day 43, Group 4: 1.4 mg/kg 5-days ON 2-days OFF x 4 cycles, sc", "value": "847 ± 249", "unit": "mm^3"}, {"measurement": "Tumor volume (Mean ± SEM)", "setting": "Day 43, Group 5: 0.7 mg/kg 5-days ON 2-days OFF x 4 cycles, sc", "value": "817 ± 381", "unit": "mm^3"}]}
